Changes are numbered by the printed parent chain. No constants are given. Whether binding was seen depends on the method and setting. In cells and extracts the contact can be indirect. Some binding calls cover weakened binding; strength is not graded here. Sequences can lack the tags named with a protein. One block for each molecule: values may come before it.
How the values were obtained:
[1] = target: T1, GFP-SNX21 (N-terminal GFP-tagged full-length human sorting nexin-21) (human) (UniProt Q969T3); assay: co-IP; GFP-nanotrap precipitation of GFP-SNX21 co-expressed with Flag-tagged Htt variants in HEK293-T cells; SDS-PAGE and western blot
T1 sequence: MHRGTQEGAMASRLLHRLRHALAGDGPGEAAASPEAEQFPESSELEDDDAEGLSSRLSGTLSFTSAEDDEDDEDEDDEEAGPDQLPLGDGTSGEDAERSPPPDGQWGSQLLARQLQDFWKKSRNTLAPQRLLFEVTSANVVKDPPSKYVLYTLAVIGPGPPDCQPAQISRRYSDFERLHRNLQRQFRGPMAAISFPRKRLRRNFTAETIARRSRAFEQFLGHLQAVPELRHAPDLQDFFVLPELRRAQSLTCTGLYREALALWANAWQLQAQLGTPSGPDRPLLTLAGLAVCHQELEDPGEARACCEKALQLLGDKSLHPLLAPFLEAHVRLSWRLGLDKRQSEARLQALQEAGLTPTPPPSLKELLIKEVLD

The chains behind the UniProt entries cited, without tags or fusion partners. Where a name states a change or a piece, a line headed by the entry shows the natural chain unless it says otherwise.
UniProt P42858: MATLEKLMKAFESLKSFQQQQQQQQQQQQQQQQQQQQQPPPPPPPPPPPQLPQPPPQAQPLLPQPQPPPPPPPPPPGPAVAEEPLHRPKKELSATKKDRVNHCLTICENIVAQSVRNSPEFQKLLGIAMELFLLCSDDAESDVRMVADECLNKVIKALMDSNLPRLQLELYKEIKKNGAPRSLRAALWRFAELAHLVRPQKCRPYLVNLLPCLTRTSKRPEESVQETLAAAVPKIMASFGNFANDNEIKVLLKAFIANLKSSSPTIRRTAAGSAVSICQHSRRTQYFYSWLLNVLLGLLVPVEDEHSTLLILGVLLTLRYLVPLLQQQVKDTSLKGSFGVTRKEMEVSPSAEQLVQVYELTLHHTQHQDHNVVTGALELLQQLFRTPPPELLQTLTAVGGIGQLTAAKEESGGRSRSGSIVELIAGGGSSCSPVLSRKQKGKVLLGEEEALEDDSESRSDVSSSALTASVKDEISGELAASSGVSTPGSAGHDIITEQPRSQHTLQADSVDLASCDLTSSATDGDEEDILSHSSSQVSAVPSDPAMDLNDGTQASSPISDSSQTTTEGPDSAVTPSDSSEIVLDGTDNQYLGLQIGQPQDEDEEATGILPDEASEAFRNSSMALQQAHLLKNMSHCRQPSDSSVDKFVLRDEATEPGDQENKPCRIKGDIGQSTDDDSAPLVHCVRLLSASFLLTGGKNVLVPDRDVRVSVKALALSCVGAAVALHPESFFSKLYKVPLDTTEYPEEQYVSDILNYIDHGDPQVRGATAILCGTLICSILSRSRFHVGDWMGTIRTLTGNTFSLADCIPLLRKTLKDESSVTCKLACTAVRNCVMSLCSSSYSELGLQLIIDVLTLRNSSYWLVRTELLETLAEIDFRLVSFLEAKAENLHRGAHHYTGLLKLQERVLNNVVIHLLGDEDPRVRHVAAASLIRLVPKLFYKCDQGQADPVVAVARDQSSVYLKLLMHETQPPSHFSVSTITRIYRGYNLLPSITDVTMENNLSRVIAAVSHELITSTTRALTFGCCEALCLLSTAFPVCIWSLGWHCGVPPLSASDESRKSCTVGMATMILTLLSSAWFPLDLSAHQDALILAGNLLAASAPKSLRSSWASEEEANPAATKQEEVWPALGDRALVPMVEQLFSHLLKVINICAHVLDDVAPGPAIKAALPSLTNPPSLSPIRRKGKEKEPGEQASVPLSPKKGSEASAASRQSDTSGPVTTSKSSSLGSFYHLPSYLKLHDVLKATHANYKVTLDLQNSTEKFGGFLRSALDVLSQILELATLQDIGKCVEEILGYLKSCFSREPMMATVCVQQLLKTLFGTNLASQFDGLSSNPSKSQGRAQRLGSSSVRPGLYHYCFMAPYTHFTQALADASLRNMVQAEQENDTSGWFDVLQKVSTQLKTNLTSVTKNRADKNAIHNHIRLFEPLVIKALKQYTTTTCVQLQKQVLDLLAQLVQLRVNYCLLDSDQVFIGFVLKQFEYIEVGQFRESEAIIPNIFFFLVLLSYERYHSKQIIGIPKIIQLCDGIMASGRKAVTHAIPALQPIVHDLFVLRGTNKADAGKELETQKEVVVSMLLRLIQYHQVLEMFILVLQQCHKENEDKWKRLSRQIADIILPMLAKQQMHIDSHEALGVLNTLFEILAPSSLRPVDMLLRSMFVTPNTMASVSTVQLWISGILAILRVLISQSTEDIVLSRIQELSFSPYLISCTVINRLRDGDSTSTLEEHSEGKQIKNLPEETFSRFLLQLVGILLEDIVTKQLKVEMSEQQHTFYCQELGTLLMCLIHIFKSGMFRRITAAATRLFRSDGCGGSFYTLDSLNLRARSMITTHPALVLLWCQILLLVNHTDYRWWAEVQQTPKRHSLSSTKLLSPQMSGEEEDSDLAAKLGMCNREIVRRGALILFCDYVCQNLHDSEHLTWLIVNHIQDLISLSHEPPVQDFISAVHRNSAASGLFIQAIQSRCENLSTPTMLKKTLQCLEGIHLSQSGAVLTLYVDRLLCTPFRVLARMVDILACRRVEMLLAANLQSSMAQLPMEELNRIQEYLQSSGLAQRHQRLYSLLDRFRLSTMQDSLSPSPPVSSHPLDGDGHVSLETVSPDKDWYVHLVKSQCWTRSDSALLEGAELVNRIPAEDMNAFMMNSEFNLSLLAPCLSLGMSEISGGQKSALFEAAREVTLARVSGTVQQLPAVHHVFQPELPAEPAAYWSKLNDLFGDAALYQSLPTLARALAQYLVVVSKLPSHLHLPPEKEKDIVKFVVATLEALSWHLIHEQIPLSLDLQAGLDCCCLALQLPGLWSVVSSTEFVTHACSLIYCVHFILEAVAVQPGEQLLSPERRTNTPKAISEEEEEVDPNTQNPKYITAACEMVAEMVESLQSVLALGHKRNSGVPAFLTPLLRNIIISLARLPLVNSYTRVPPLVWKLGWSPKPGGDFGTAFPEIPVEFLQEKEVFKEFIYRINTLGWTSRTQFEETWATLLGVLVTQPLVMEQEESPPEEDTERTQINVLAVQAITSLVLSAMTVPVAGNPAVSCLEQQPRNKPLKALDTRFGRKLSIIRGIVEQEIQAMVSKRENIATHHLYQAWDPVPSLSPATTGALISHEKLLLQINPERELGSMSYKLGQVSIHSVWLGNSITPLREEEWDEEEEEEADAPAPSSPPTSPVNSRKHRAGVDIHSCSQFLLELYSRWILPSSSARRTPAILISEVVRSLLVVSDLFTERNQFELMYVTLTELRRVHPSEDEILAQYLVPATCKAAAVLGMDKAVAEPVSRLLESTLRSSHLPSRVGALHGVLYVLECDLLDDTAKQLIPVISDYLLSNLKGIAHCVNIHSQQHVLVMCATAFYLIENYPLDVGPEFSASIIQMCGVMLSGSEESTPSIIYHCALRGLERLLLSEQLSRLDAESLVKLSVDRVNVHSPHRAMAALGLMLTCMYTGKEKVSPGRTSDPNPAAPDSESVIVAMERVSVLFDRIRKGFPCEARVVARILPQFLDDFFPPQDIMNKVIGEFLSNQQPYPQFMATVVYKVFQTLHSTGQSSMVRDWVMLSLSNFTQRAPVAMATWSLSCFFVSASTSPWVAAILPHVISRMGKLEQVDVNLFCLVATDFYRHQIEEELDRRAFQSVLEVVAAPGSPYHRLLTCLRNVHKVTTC

GFP-SNX21(1-129) (human) = target: T2, GFP-SNX21(1-129) (human) (UniProt Q969T3); assay: co-IP; GFP-nanotrap precipitation of GFP-tagged constructs from transiently transfected HEK293-T lysates (50 mM Tris-HCl pH 7.4, 0.5% NP40), 1 h at 4°C; western blot for endogenous Htt and septins
T2 sequence: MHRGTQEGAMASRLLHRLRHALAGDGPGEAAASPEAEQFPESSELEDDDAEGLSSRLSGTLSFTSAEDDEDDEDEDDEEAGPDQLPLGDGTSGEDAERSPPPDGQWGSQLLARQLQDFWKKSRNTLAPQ

GFP-SNX21(R171A) (human) = target: T3, GFP-SNX21(R171A) (human) (UniProt Q969T3); assay: as above
T3 sequence: T1 sequence with R171A

[2] = target: T4, GFP-SNX20 (GFP-tagged full-length sorting nexin-20) (UniProt Q7Z614); assay: as above
T4 sequence: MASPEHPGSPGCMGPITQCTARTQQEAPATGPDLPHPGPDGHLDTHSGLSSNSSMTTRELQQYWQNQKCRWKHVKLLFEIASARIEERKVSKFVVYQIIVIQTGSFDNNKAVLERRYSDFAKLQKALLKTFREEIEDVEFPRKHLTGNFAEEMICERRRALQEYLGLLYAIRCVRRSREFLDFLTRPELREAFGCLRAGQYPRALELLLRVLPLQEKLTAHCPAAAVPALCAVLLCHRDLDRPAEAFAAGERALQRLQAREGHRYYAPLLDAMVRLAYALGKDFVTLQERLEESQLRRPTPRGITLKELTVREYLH

[3] = target: T5, GFP-tagged isolated SNX21 PXB domain (residues 273-373) (human) (UniProt Q969T3); assay: as above
T5 sequence: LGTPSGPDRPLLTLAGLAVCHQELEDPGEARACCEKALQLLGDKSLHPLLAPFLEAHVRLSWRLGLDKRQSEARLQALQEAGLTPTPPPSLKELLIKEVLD

GFP-SNX21(D49K) (human) = target: T6, GFP-SNX21(D49K) (human) (UniProt Q969T3); assay: as above
T6 sequence: T1 sequence with D49K

[4] = target: T1, GFP-SNX21 (N-terminal GFP-tagged full-length human sorting nexin-21) (human); assay: as above
[5] = target: T7, GFP-SNX21(D48K, D49K) (human) (UniProt Q969T3); assay: as above
T7 sequence: T1 sequence with D48K, D49K

GFP-SNX21(K364E) (human) = target: T8, GFP-SNX21(K364E) (human) (UniProt Q969T3); assay: as above
T8 sequence: T1 sequence with K364E

Molecule: FLAG-tagged Htt (1-588aa) (from UniProt P42858 1-588) (domain or fragment)
binding [1]: binds

Molecule: FLAG-tagged full-length Htt (from UniProt P42858 1-3142)
binding [1]: binds

B2: septin 2 (SEPT2), endogenous (protein, UniProt Q15019 1-361)
chain: MSKQQPTQFINPETPGYVGFANLPNQVHRKSVKKGFEFTLMVVGESGLGKSTLINSLFLTDLYPERVIPGAAEKIERTVQIEASTVEIEERGVKLRLTVVDTPGYGDAINCRDCFKTIISYIDEQFERYLHDESGLNRRHIIDNRVHCCFYFISPFGHGLKPLDVAFMKAIHNKVNIVPVIAKADTLTLKERERLKKRILDEIEEHNIKIYHLPDAESDEDEDFKEQTRLLKASIPFSVVGSNQLIEAKGKKVRGRLYPWGVVEVENPEHNDFLKLRTMLITHMQDLQEVTQDLHYENFRSERLKRGGRKVENEDMNKDQILLEKEAELRRMQEMIARMQAQMQMQMQGGDGDGGALGHHV
binding (GFP-SNX21(1-129) (human)): no binding
binding (GFP-SNX21(R171A) (human)): no binding
binding [2]: binds
binding [3]: binds
binding (GFP-SNX21(D49K) (human)): binds
binding [4]: binds
binding [5]: binds
binding (GFP-SNX21(K364E) (human)): binds

Further lines, results first:

binding (GFP-SNX21(1-129) (human)): no binding
binding (GFP-SNX21(R171A) (human)): no binding
binding [2]: binds
binding [3]: binds
binding (GFP-SNX21(D49K) (human)): binds
binding [4]: binds
binding [5]: binds
binding (GFP-SNX21(K364E) (human)): binds
B1: septin 7 (SEPT7), endogenous (protein, UniProt Q16181 1-437)
chain: MSVSARSAAAEERSVNSSTMVAQQKNLEGYVGFANLPNQVYRKSVKRGFEFTLMVVGESGLGKSTLINSLFLTDLYSPEYPGPSHRIKKTVQVEQSKVLIKEGGVQLLLTIVDTPGFGDAVDNSNCWQPVIDYIDSKFEDYLNAESRVNRRQMPDNRVQCCLYFIAPSGHGLKPLDIEFMKRLHEKVNIIPLIAKADTLTPEECQQFKKQIMKEIQEHKIKIYEFPETDDEEENKLVKKIKDRLPLAVVGSNTIIEVNGKRVRGRQYPWGVAEVENGEHCDFTILRNMLIRTHMQDLKDVTNNVHYENYRSRKLAAVTYNGVDNNKNKGQLTKSPLAQMEEERREHVAKMKKMEMEMEQVFEMKVKEKVQKLKDSEAELQRRHEQMKKNLEAQHKELEEKRRQFEDEKANWEAQQRILEQQNSSRTLEKNKKKGKIF

binding [4]: binds
binding (GFP-SNX21(K364E) (human)): binds
B3: septin 9 (SEPT9), endogenous (protein, UniProt Q9UHD8 1-586)
chain: MKKSYSGGTRTSSGRLRRLGDSSGPALKRSFEVEEVETPNSTPPRRVQTPLLRATVASSTQKFQDLGVKNSEPSARHVDSLSQRSPKASLRRVELSGPKAAEPVSRRTELSIDISSKQVENAGAIGPSRFGLKRAEVLGHKTPEPAPRRTEITIVKPQESAHRRMEPPASKVPEVPTAPATDAAPKRVEIQMPKPAEAPTAPSPAQTLENSEPAPVSQLQSRLEPKPQPPVAEATPRSQEATEAAPSCVGDMADTPRDAGLKQAPASRNEKAPVDFGYVGIDSILEQMRRKAMKQGFEFNIMVVGQSGLGKSTLINTLFKSKISRKSVQPTSEERIPKTIEIKSITHDIEEKGVRMKLTVIDTPGFGDHINNENCWQPIMKFINDQYEKYLQEEVNINRKKRIPDTRVHCCLYFIPATGHSLRPLDIEFMKRLSKVVNIVPVIAKADTLTLEERVHFKQRITADLLSNGIDVYPQKEFDEDSEDRLVNEKFREMIPFAVVGSDHEYQVNGKRILGRKTKWGTIEVENTTHCEFAYLRDLLIRTHMQNIKDITSSIHFEAYRVKRLNEGSSAMANGMEEKEPEAPEM

Reference: article PMC6140323
